Experimental data reported in the supplement of paper PMC12217912.
This is one part of the list. The full chains were built here from the parent and the listed change. Values near 0.05 are background.

B1: TEV protease; numbered along this chain (parent)
chain: MGESLFKGPRDYNPISSSICHLTNESDGHTTSLYGIGFGPFIITNKHLFRRNNGTLVVQSLHGVFKVKDTTTLQQHLVDGRDMIIIRMPKDFPPFPQKLKFREPQREERICLVTTNFQTKSMSSMVSDTSCTFPSGDGIFWKHWIQTKDGQCGSPLVSTRDGFIVGIHSASNFTNTNNYFTSVPKNFMELLTNQEAQQWVSGWRLNADSVLWGGHKVFMVKPEEPFQPVKEATQL

Variants of: B1
Assay: raw area under fraction-flipped curve 0-4 h after induction (AUC4h, not background-subtracted), DNA-recorder readout of cleavage of the substrate (dimensionless); higher = more cleavage of the substrate by the protease variant
Settings: temperature: 34 °C; time window: 0-4 h after rhamnose induction
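Note: Bxb1 expression induced with 0.2% (w/v) L-rhamnose at OD600 near 0.5, cultures sampled hourly, flipped fraction per protease–substrate barcode pair counted by paired-end Illumina sequencing.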

Row | Variant | area with substrate ECLYFQS | area with substrate EELYFQS | area with substrate EILYFQS | area with substrate EQLYFQS | area with substrate ESLYFQS | area with substrate EVLYFQS | area with substrate EWLYFQS | area with substrate EGLYFQS | area with substrate EKLYFQS | area with substrate EPLYFQS
1 | N193F | 0.0777 | 0.0706 | 0.0574 | 0.101 | 0.0954 | 0.0831 | 0.0828 |  |  | 
2 | V57F |  | 0.124 |  |  | 0.102 | 0.0613 | 0.0862 | 0.0959 | 0.107 | 0.135
3 | Q59E |  | 0.114 | 0.0972 | 0.116 | 0.13 | 0.0541 | 0.0995 |  | 0.0974 | 0.104
4 | T174M | 0.105 |  | 0.0805 |  | 0.0926 | 0.101 |  | 0.107 |  | 0.122
5 | L235V | 0.168 | 0.0917 | 0.0803 | 0.109 |  |  |  |  |  | 0.102
6 | G35H |  | 0.0566 |  | 0.0423 | 0.0544 |  | 0.0446 | 0.0579 |  | 
7 | N206V | 0.0992 |  | 0.0646 | 0.134 |  |  |  |  |  | 0.0741
8 | N206W | 0.0588 | 0.102 | 0.0563 | 0.0475 | 0.09 |  | 0.0761 | 0.0801 | 0.0809 | 0.0906
9 | N206Q | 0.0655 |  | 0.0736 | 0.109 | 0.0987 | 0.0922 |  |  |  | 
10 | S209Q | 0.137 |  | 0.0871 | 0.0999 | 0.118 |  | 0.0994 |  | 0.0451 | 0.128
11 | L191N |  |  |  |  |  | 0.0495 | 0.0575 | 0.0519 | 0.0527 | 
12 | F218E | 0.0877 | 0.0901 | 0.0807 |  | 0.0897 |  | 0.078 | 0.089 | 0.0991 | 
13 | H47T |  |  | 0.0462 | 0.0508 | 0.063 | 0.0586 |  | 0.0695 | 0.0624 | 0.0564
14 | Y34M |  |  | 0.0965 |  | 0.0869 | 0.0818 |  |  | 0.0902 | 0.1
15 | Y34P |  | 0.0536 |  | 0.0485 | 0.049 | 0.0505 |  | 0.0393 | 0.0501 | 
16 | F49N |  | 0.0552 | 0.0673 |  |  | 0.0648 | 0.0454 |  |  | 0.0342
17 | Q227H | 0.0857 |  | 0.0693 |  | 0.105 | 0.0798 |  | 0.0949 |  | 0.137

Same assay, conditions: temperature: 34 °C; time window: 0-4 h after rhamnose induction

Row | Variant | area with substrate ERLYFQS | area with substrate EFLYFQS | area with substrate EMLYFQS | area with substrate ETLYFQS | area with substrate EYLYFQS | area with substrate EDLYFQS | area with substrate ELLYFQS | area with substrate EHLYFQS
18 | V57F | 0.0921 |  |  |  |  |  |  | 
19 | Q59E |  | 0.0799 | 0.0845 | 0.138 | 0.0689 |  |  | 
20 | T174M | 0.0856 |  | 0.143 | 0.0836 | 0.087 | 0.0883 | 0.0871 | 
21 | L235V | 0.0939 |  |  | 0.0962 |  |  |  | 
22 | G35H |  |  | 0.0507 | 0.0474 |  |  |  | 
23 | N206V |  | 0.0655 | 0.0383 |  |  | 0.132 | 0.0837 | 
24 | N206W | 0.0917 | 0.0773 | 0.0907 |  | 0.0823 | 0.0846 | 0.106 | 
25 | N206Q | 0.0908 |  | 0.0978 |  |  |  | 0.0969 | 
26 | S209Q |  |  | 0.115 |  |  | 0.159 |  | 
27 | L191N | 0.0551 |  |  |  |  | 0.0572 |  | 0.0601
28 | F218E | 0.1 | 0.0724 | 0.0841 |  |  | 0.103 | 0.075 | 0.114
29 | H47T | 0.0811 | 0.0676 | 0.0516 | 0.0614 | 0.0554 | 0.0549 | 0.0513 | 0.0632
30 | Y34M |  | 0.11 | 0.109 |  |  | 0.12 | 0.0812 | 0.108
31 | Y34P |  | 0.0487 |  | 0.0666 |  |  | 0.0737 | 
32 | F49N | 0.0524 |  | 0.0497 | 0.0512 | 0.0535 | 0.0717 |  | 0.0628
33 | Q227H |  | 0.113 | 0.112 | 0.0945 |  |  | 0.0842 | 0.104
